Laboratory results reported in US20030143697A1 (published 2003).

Tests used:
recombinant human IL-1β [1] = molecular target: T1, recombinant human IL-1β (human, UniProt P01584 117-269); test: cell-based or functional assay
[2] = molecular target: recombinant human IL-1 (human); test: cell-based or functional assay
recombinant human IL-1β [3] = molecular target: T1, recombinant human IL-1β; test: inferred by the filing from the IC50 in the 293-NFκB luciferase reporter assay with 5 pM human IL-1β, not a direct binding assay

Binder | serum IL-6 in C57BL/6 mice 2 h after rhIL-1β (mouse IL-6 ELISA) (fold molar excess) (recombinant human IL-1β [1]) | IL-1-dependent production of IL-6 by MRC5 cells; fold against IL1RI.Fc [2] [fold] | IL-1-dependent production of IL-6 by MRC5 cells; highest IL-1 concentration blocked by 10 nM Trap [2] [nM] | IC50, luciferase expression in 293-NFκB reporter cells with 5 pM human IL-1β (recombinant human IL-1β [1]) [pM] | Kd (recombinant human IL-1β [3]) [nM]
IL-1 Trap 1SC569 (Fc fusion) SERCDDWGLDTMRQIQVFEDEPARIKCPLFEHFLKFNYSTAHSAGLTLIWYWTRQDRDLEEPINFRLPENRISKEKDVLWFRPTLLNDTGNYTCMLRNTTYCSKVAFPLEVVQKDSCFNSPMKLPVHKLYIEYGIQRITCPNVDGYFPSSVKPTITWYMGCYKIQNFNNVIPEGMNLSFLIALISNNGNYTCVVTYPENGRTFHLTRTLTVKVVGSPKNAVPPVIHSPNDHVVYEKEPGEELLIPCTVYFSFLMDSRNEVWWTIDGKKPDDITIDVTINESISHSRTEDETRTQILSIKKVTSEDLKRSYVCHARSAKGEVAKAAKVKQKVPAPRYTVSGGAPMLSEADKCKEREEKIILVSSANEIDVRPCPLNPNEHKGTITWYKDDSKTPVSTEQASRIHQHKEKLWFVPAKVEDSGHYYCVVRNSSYCLRIKISAKFVENEPNLCYNAQAIFKQKLPVAGDGGLVCPYMEFFKNENNELPKLQWYKDCKPLLLDNIHFSGVKDRLIVMNVAEKHRGNYTCHASYTYLGKQYPITRVIEFITLEENKPTRPVIVSPANETMEVDLGSQIQLICNVTGQLSDIAYWKWNGSVIDEDDPVLGEDYYSVENPANKRRSTLITVLNISEIESRFYKHPFTCFAKNTHGIDAAYIQLIYPVTNSG[not shown - human IgG1 Fc] | 50 and 150 | 100 | 3 |  | 
Human IL-1 Trap 1649 (Fc fusion, Entry as encoded; The Cys to Gly change is already part of the entry) SERCDDWGLDTMRQIQVFEDEPARIKCPLFEHFLKFNYSTAHSAGLTLIWYWTRQDRDLEEPINFRLPENRISKEKDVLWFRPTLLNDTGNYTCMLRNTTYCSKVAFPLEVVQKDSCFNSPMKLPVHKLYIEYGIQRITCPNVDGYFPSSVKPTITWYMGCYKIQNFNNVIPEGMNLSFLIALISNNGNYTCVVTYPENGRTFHLTRTLTVKVVGSPKNAVPPVIHSPNDHVVYEKEPGEELLIPCTVYFSFLMDSRNEVWWTIDGKKPDDITIDVTINESISHSRTEDETRTQILSIKKVTSEDLKRSYVCHARSAKGEVAKAAKVKQKVPAPRYTVHTGAARSCRFRGRHYKREFRLEGEPVALRCPQVPYWLWASVSPRINLTWHKNDSARTVPGEEETRMWAQDGALWLLPALQEDSGTYVCTTRNASYCDKMSIELRVFENTDAFLPFISYPQILTLSTSGVLVCPDLSEFTRDKTDVKIQWYKDSLLLDKDNEKFLSVRGTTHLLVHDVALEDAGYYRCVLTFAHEGQQYNITRSIELRIKKKKEETIPVIISPLKTISASLGSRLTIPCKVFLGTGTPLTTMLWWTANDTHIESAYPGGRVTEGPRQEYSENNENYIEVPLIFDPVTREDLHMDFKCVVHNTLSFQTLRTTVKEASSTFSG[not shown - human IgG1 Fc] |  |  |  | 32 | ~0.03

Several values for one entry are separate records, joined by “and”; a condition that tells them apart may be missing. Equal entries are not always repeated.
